Laboratory results reported in the supplement of paper PMC11417369.
This is one part of the list.

The sequences below were run on PfHDP1 homeodomain (GST-tagged) (assay: gcPBM binding intensity (ln(normalized median fluorescence intensity)); higher = stronger DNA binding).
Procedure, shortened: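 An Agilent 4 × 180k array carrying primer-extended double-stranded 36-bp intergenic genomic probes and negative controls received GST-tagged P. falciparum DNA-binding domains expressed in E. coli, about 25 μg on average, for 1 h. The binding buffer contained 1× PBS, 1% milk, 0.2 mg/ml BSA, 0.5% salmon testes DNA and 0.03% Triton X-100. Binding intensity is the top Masliner-normalised natural-log median intensity across replicate spots of either probe orientation, read after Alexa488 anti-GST antibody staining and a 488 nm scan.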

| Sequence | gcPBM binding intensity (ln) |
| --- | --- |
| GATGCACTTTAAAAATGTACTTATACCTTTAATTGT [XGTACX_site6395] | 8.27 |
| ATATTTATATACAAATGTACGCATATAATATATATA [XGTACX_site1232] | 6.68 |
| TAAAAAAAAAAAAATACACACACACCGATATATATA [CACACA_site8498] | 6.89 |
| TAAGTGCATGAGATATGTACATATATAAAATATATA [XGTACX_site3294] | 9.2 |
| AATAAAAACTAAACATGTACGCACATATATATATAT [XGTACX_site8096] | 9.42 |
| TCATAGTCTTAATGACTACACACCTAACTATGCATG [CACACA_site1839] | 6.28 |
| ATATATATACATACATACCTATGTATATGTGTAATT [GTGCAC_negctrl_site50] | 6.96 |
| ATGGTAGTGATTAAAAGTACACGTAATTGTAAAAAT [XGTACX_site387] | 6.75 |
| TAAACAACTTATAAATGTACACATATTTTAATTACC [XGTACX_site5409] | 6.51 |
| ACCCAACATATGTGTACACAGAAAATAAATATAATA [CACACA_site5901] | 7.31 |
| TTTTGTAATTCTCTTCATATAATTTATATATATATA [CACACA_negctrl_site1825] | 8.57 |
| GTGTTTTTTTTAGATTGTACATATATATATATATAT [XGTACX_site4562] | 9.11 |
| TTTGTTTTTTCTTTTTGTACATATACAAGATACGTA [XGTACX_site2309] | 6.75 |
| GTATATATTCATATGGAAAATAAAGGAGAAAACAAG [TGCATGCA_negctrl_site220] | 7.38 |
| ATGTATGTATAATATACACACTCACAAGCATTCAAA [CACACA_site4306] | 6.75 |
| ACAGATATACATAAAAAAAAAATAATTTTACATATA [CACACA_negctrl_site929] | 6.1 |
| AGCACAGACGGACACACACACATATATATATATATA [CACACA_site4341] | 9.38 |
| ATATATATGTATGTATGTACATATTTGAATTTATTT [XGTACX_site8470] | 6.66 |
| TTCCATATAATTACATGTACACATTTTGAATAATAT [XGTACX_site3692] | 6.98 |
| ATAAACATATCAATATGTACATATTTTTGTTTGTAT [XGTACX_site7018] | 6.28 |
| TTATAATAGTTAAATGTACACACTAACTACATGGAA [CACACA_site9070] | 6.83 |
| AAACCACAAAATTTTTTATATATGACCAATACATAG [CACACA_negctrl_site277] | 6.54 |

| Sequence | gcPBM binding intensity (ln) |
| --- | --- |
| ATTTATCAATAAAATGCACACACTGTAATATTATTA [CACACA_site3976] | 9.96 |
| ATTTGTTACACTAAATGTACATACATACATATATAT [XGTACX_site6175] | 6.98 |
| TTATAAATTATAGGTACACACAAAAAAAAAAAGAAA [CACACA_site1327] | 6.73 |
| TATAATATAAAAAAAAGTACACGAATTTTTTTTCAG [XGTACX_site6105] | 6.07 |
| AAATAAATTTGACCAGTGCAATAACTTTGTATACCT [GTGCAC_site9446] | 9.24 |
| ATCCAAAAGAAAAATAGTACAGATATGAACAATATG [XGTACX_site6944] | 6.48 |
| ACAATATATTTTTGAGCATGCGCAAAAGAGAATGCA [TGCATGCA_site566] | 8.51 |
| TAAAATCAATGTTCTTGTACTTAAAATGTTTGTTCT [XGTACX_site5490] | 6.15 |
| ATATATCTATATAGAAATGTATATATATATATGTGT [TGCATGCA_negctrl_site349] | 6.57 |
| TATTATTCTACTATTATATTCTATATTATTTATAGT [CACACA_negctrl_site499] | 6.31 |
| AAAATTAAATTATTTACACACAATATTAAAATATTT [CACACA_site3244] | 6.5 |
| AGTATAAAATTTGGTTGTACATTTTTAAAAAAATTA [XGTACX_site7519] | 6.03 |
| TCAAAGGAATTTTTATGTACATATAAACTTTATTCT [XGTACX_site3432] | 6.39 |
| AAAAAAAAAAAAAAATGTACATATATATTTATATAT [XGTACX_site229] | 6.25 |
| AAAAGTTGTATTTGCACACATAAAAAAAAGATATTA [CACACA_site3840] | 10.3 |
| AACCCCAAGCCGTACTGTACATATATTTTTATTTTA [XGTACX_site142] | 6.9 |
| AAATTCAAACAAATTACACACATTTTTTTTTAATTT [CACACA_site3596] | 6.85 |
| ACTTTAAAAAGATTCACACAAAATATATAAAAATAT [CACACA_site5334] | 6.25 |
| ATATCAATTTTTGGTGGTACGTAGGAAGTTTCAGAA [XGTACX_site6881] | 6.92 |
| TTTTTTTTTTTTTATACACACATTAAAATAAAAAAG [CACACA_site3946] | 6.74 |
| CTCTTCCTTAATTTTTGTACTTAAAATTTTTTTTTT [XGTACX_site1628] | 7.01 |
| AAAGAAAAAAAAAAAACACACAAAAAAAATCAAAAT [CACACA_site2871] | 6.54 |

| Sequence | gcPBM binding intensity (ln) |
| --- | --- |
| AACATATACTGTTTATGTACACATTGTTATATTAAT [XGTACX_site4276] | 6.4 |
| ATATAATTTAATTTCTGTACATAAGAGAAAAAACAA [XGTACX_site4865] | 6.91 |
| TTATGCAAAAATAAATCAATATGTTGATATGTAAAT [GTGCAC_negctrl_site128] | 6.75 |
| TACATTTTATGCATTTGTACACAAATAAATAAATAA [XGTACX_site2652] | 6.41 |
| CATAATATTAAATCAGTGCAAATATACAGAATAAAT [GTGCAC_site9786] | 9.8 |
| AAATGAAGATTTAAATGTACGAGAGGGTATACAAAT [XGTACX_site5075] | 7.05 |
| GACTTCTCCATATACACACACCAACAAATATAAAAA [CACACA_site7331] | 7.53 |
| AAATTTATAAATTAAAGTACATATTTCTTGAATATT [XGTACX_site859] | 6.16 |
| TATAGATACACTTTGTGTACATAAAAATTGTATTAA [XGTACX_site7137] | 6.47 |
| TATTAAATTATATAGACACACATTATGTATATATAT [CACACA_site345] | 6.63 |
| TACGAAAGGTAATATTGTACATTACAAAATTTTATA [XGTACX_site5512] | 6.43 |
| TATGTATAAATATTAACACACAAAAAAAAAAAAAAA [CACACA_site6938] | 6.32 |
| AATAAGCAGAAACACACACACAAAAAAAAAAAAAAA [CACACA_site719] | 6.33 |
| GTTTGATAACACCTACAAACTCTTTTTTTTTTTTTT [CACACA_negctrl_site1134] | 6.19 |
| ATATAAACAAAGCAGTGCACGTAAACAAAACATATA [CACACA_negctrl_site1076] | 9.55 |
| TCGTTATCCATCTTCACACATATATATAGTAATATA [CACACA_site5492] | 7.37 |
| TACTGTTTAAAATATACACACATAATCAAAAAAAAA [CACACA_site2510] | 6.39 |
| AAAAAAAAAATTGAAAGTACACAAATGGGGTATTAT [XGTACX_site3960] | 6.6 |
| TATATATTTACATATTGTACAATATAAAAATAATTA [XGTACX_site19] | 6.29 |
| TATATATATCTTTTGGTGCATATTTCGAATATATGT | 9.67 |
| CTATACAATAAAAATTGTACATACATATATGTTATA [XGTACX_site5309] | 6.32 |
| AATTTTTCTTTTTTTTGTACAGAATATATATTTTAT [XGTACX_site1419] | 6.61 |

| Sequence | gcPBM binding intensity (ln) |
| --- | --- |
| ATATTTATGTAATGTTTGATTTTTTTTTTATGTGTG [CACACA_negctrl_site1422] | 6.28 |
| ACATATACATACATATGTACATATACATAAATATAT [XGTACX_site1285] | 6.73 |
| TAAATAATCATAGTTCTACACACCTATATTGCAAAA [CACACA_site8190] | 7.55 |
| AAAAAAAAAAATTCCAGTACACACAATAATACTAAA [XGTACX_site5930] | 6.39 |
| ATATATATAATATGATGTACTATTTTGATAAAAAAT [XGTACX_site3975] | 6.46 |
| GTAAGAAACGGACACACACACATATATATATATATA [CACACA_site4593] | 9.38 |
| AATATATTGCACCATTGGACCTGAATAATTCTTCCA [CACACA_negctrl_site1071] | 11.4 |
| ACAAAGAACTATAATACACACAAGAATATATTGGAT [CACACA_site7771] | 6.8 |
| AAAAAAATCACATAATATACTTTATTTTATTTTGTA [GTGCAC_negctrl_site562] | 6.12 |
| TATATATAGAAACACACACACACATATATATATATT [CACACA_site2539] | 6.95 |
| TTATAAGATTTATGTACACACATATACACCCCTCTA [CACACA_site4562] | 6.8 |
| AATAATTAAATATATTTATAACAGGAAAATATTTAT [XGTACX_negctrl_site175] | 6.59 |
| ATAAATTATATTCAAGTGCATGTAACTTATTATTAT | 7.32 |
| ATATATATATAAATATAAATATATATATATATATAT [CACACA_negctrl_site1685] | 9.18 |
| GTTATAGAAGCATTCACACACACACCGACATACACA [CACACA_site4914] | 6.85 |
| AATATATACATATGTATGCACTTTTTAATTATTTTT | 7.72 |
| TATTATAATATATTTGTGCACATAATACCTCCGCTA [GTGCAC_site9570] | 10.9 |
| GTTATAGAAGCATTCACACACACACGGACATACACA [CACACA_site6801] | 6.9 |
| TTTTTTTATAAAAATGAACACACACCGATATATATA [CACACA_site9161] | 7.14 |
| TAGTAAGAATTACTGTGTACTAAAATATTAAAAAGT [XGTACX_site2578] | 6.7 |
| AAATAGTCTTCTCTTGCATGTAACAAATATATATAT [TGCATGCA_site428] | 7.83 |
| AATAAAAACAAACAAAAAAACAAATAAATAAATAAA [CACACA_negctrl_site483] | 6.58 |
